Reference: the supplement of paper PMC12217912
This is one part of the list. The full chains were built here from the parent and the listed change. Values near 0.05 are background.

B1: TEV protease; numbered along this chain (parent)
chain: MGESLFKGPRDYNPISSSICHLTNESDGHTTSLYGIGFGPFIITNKHLFRRNNGTLVVQSLHGVFKVKDTTTLQQHLVDGRDMIIIRMPKDFPPFPQKLKFREPQREERICLVTTNFQTKSMSSMVSDTSCTFPSGDGIFWKHWIQTKDGQCGSPLVSTRDGFIVGIHSASNFTNTNNYFTSVPKNFMELLTNQEAQQWVSGWRLNADSVLWGGHKVFMVKPEEPFQPVKEATQL

Variants of: B1
Experiment: raw area under fraction-flipped curve 0-4 h after induction (AUC4h, not background-subtracted), DNA-recorder readout of cleavage of the substrate (dimensionless); higher = more cleavage of the substrate by the protease variant
Conditions: temperature: 34 °C; time window: 0-4 h after rhamnose induction
Experimental: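 In vivo DNA recorder in E. coli TOP10(DE3) ΔrhaA at 34 °C. Each TEVp single-site mutant (parent TEVp 0) is paired with a single-site variant of the 7-mer TEVs (canonical ENLYFQ|S). The substrate sits between flexible linkers in a Bxb1-sfGFP-TEVs-SsrA fusion, so cleavage stabilises Bxb1 and speeds flipping of a recombination array, read by NGS. The value is the raw area under the fraction-flipped curve over 0-4 h after rhamnose induction (AUC4h), with ≥20 reads per time point. It is not background-subtracted; inactive controls average about 0.047.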
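Note: Bxb1 expression induced with 0.2% (w/v) L-rhamnose at OD600 near 0.5, cultures sampled hourly, flipped fraction per protease–substrate barcode pair counted by paired-end Illumina sequencing.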

Variant	area with substrate ENLYCQS	area with substrate ENLYEQS	area with substrate ENLYHQS	area with substrate ENLYIQS	area with substrate ENLYKQS	area with substrate ENLYMQS	area with substrate ENLYNQS	area with substrate ENLYSQS	area with substrate ENLYVQS	area with substrate ENLYWQS	area with substrate ENLYYQS	area with substrate ENLYDQS	area with substrate ENLYGQS	area with substrate ENLYPQS	area with substrate ENLYQQS	area with substrate ENLYTQS	area with substrate ENLYRQS	area with substrate ENLYLQS
V217I	0.0998	0.0573	0.06	0.0927	0.0748	0.0804	0.0544	0.0807	0.0933	0.0789	0.0673							
K98D		0.0794	0.074	0.133	0.064	0.0989	0.0566	0.0873	0.128	0.0859	0.0682	0.0619	0.0582	0.0772	0.0595	0.0769		
P228G	0.0922	0.0602	0.0747	0.143	0.0594	0.106	0.0736	0.0783		0.0869	0.0564	0.0661	0.0737	0.0664	0.0589	0.0069	0.0998	
P96I		0.0562		0.104	0.0365		0.0582		0.113		0.0584	0.0577		0.0685				0.0693
R50I		0.0624				0.102		0.0947	0.135	0.134		0.0472			0.0517		0.0717	
Q59P			0.0457		0.058		0.0327	0.0389	0.0385			0.0317	0.0372		0.0473			
W203M	0.0586	0.0635	0.0567	0.0683	0.0571		0.0554		0.0723	0.0547			0.0498					
K66N				0.118	0.0491					0.0785		0.071	0.0702				0.0708	
C111G		0.0775			0.0495	0.0871	0.0611		0.133		0.0686	0.0338						0.114
C111P		0.055	0.0556	0.061	0.0559		0.0506			0.0901		0.05			0.0488		0.0585	
Q105P		0.0519		0.0399	0.0207	0.0468	0.0539		0.0514	0.0561		0.0395	0.048	0.0454	0.0477		0.0526	
Q105S		0.0704	0.0834		0.0657	0.0803	0.0719			0.0631	0.0695	0.0672	0.0648			0.0817	0.0603	0.0967
S182P	0.104	0.0557	0.0719	0.0805	0.0745	0.0863			0.091	0.0751		0.0598	0.0662	0.0697	0.0572		0.0551	0.0861
S182Y	0.102		0.0503	0.0633	0.0681	0.0513	0.0575	0.0536		0.042	0.0395	0.0623			0.0559		0.0481	
L5K		0.0817		0.108	0.0589	0.108	0.0846		0.123		0.0561	0.0302	0.071	0.0662	0.049		0.0671	0.0929
L5A				0.136			0.0757	0.0741				0.0105		0.0772		0.0805	0.0528	
